Measurements reported in the supplement of paper PMC11383711.
The other results are listed elsewhere or left out. Binding of human antibodies (heavy:light variable regions, tested as scFv in one mRNA-display pool) to influenza hemagglutinin, with or without the stem antibody CR9114 bound first. Score = (mean enrichment − median) / interquartile range of that screen; higher = more enriched, 0 = typical non-binder. Active = above the paper's cut-off per screen: stems 28; unblocked H1 Solomon Islands 5, H1 Michigan 3, H3 5, H5 19, H7 2.85, both B 5; blocked 9, 7, H5 10, H7 10, B Phuket 10, B Lee 11.5. Scores are scaled within each screen and are no affinities; replicates correlate at about 0.6 to 0.9, and antibodies rare in the pool are noisier.

Legend:
Assay in all cases: mRNA display binding score; higher = more enriched on the antigen
[1] = molecular target: Influenza A H1N1 A/Michigan/45/2015 hemagglutinin ectodomain
Method: (§1)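 A pool of natively paired antibodies, displayed as scFv on mRNA, was selected once on antigen-coated beads and sequenced before and after; two replicates.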

[2] = molecular target: Influenza A H1N1 A/Solomon Islands/3/2006 hemagglutinin ectodomain
Method: as §1

[3] = molecular target: Influenza A H3N2 A/Singapore/INFIMH-16-0019/2016 hemagglutinin ectodomain; conditions: antigen blocked with: nothing
Method: as §1

[4] = molecular target: Influenza A H5N1 A/Qinghai/1A/2005 hemagglutinin ectodomain
Method: as §1

[5] = molecular target: Influenza A H7N9 A/Shanghai/2/2013 hemagglutinin ectodomain
Method: as §1

[6] = molecular target: Influenza B/Lee/1940 hemagglutinin ectodomain
Method: as §1

[7] = molecular target: Influenza B/Phuket/3073/2013 hemagglutinin ectodomain
Method: as §1

[8] = antigen blocked with: 2 µM CR9114 IgG

Binder | mRNA display binding score [1, 8] | mRNA display binding score ([1]; antigen blocked with: nothing) | mRNA display binding score [2, 8] | mRNA display binding score ([2]; antigen blocked with: nothing) | mRNA display binding score [3] | mRNA display binding score [4, 8] | mRNA display binding score ([4]; antigen blocked with: nothing) | mRNA display binding score [5, 8] | mRNA display binding score ([5]; antigen blocked with: nothing) | mRNA display binding score [6, 8] | mRNA display binding score ([6]; antigen blocked with: nothing) | mRNA display binding score [7, 8] | mRNA display binding score ([7]; antigen blocked with: nothing)
01.q.01 (protein) chain 1: QVQLQESSPGLVKPSQTLSLKCTVSGGSVSGGRYSWNWLRQPAGKGLEWIGHIYTTGTINYNPSLRSRVTISVDTSKNQFSLKLSSMTAADTAVYFCARAHLPDVGHYYGLDVWGQGTTVTVSS chain 2: DIQLTQSPSSLSASVGDRVTITCRASQGISSYLAWYQQKPGKAPKLLIYAASTLQSGVPSRFSGSGSGTYFTLTISSLQPEDFATYYCQQLNRDLTFGGGSKVEIK | inactive: -0.388 | inactive: 0.123 | inactive: -0.116 | inactive: -0.0307 | active: 54.2 | inactive: -0.166 | inactive: -0.438 | inactive: 2.56 | inactive: -0.114 | inactive: 1.38 | inactive: -0.25 | inactive: 0.402 | inactive: -0.23
042-10-2C02 (protein) chain 1: EVQLVESGGGLVQPGRSLRLSCKASGFKFGDFALSWVRQAPGKGLEWVGFIRSRRSGGTTEYVASVKGRFIISREDSKSIAYLQMNSLKTEDTAVYYCTRERMIDTGVGGHWGQGTLVTVSS chain 2: DIVMTQSPLSLPVTPGESASISCRSSQSLQHSNGYNYLDWYLQKPGQSPQLLIFLASNRASGVPDRFSASGSGTDFTLHISRVEAEDVGVYYCLQGLQTPFTFGPGTKVDIK | inactive: -0.058 | inactive: 0.0683 | inactive: 0.2 | inactive: -0.641 | inactive: 0.947 | inactive: -0.307 | inactive: -0.318 | inactive: 1.07 | inactive: -0.349 | inactive: 0.461 | inactive: -0.354 | inactive: -0.0124 | inactive: 0.0566
C2-3-G05 (protein) chain 1: VQLQESGPGLVKPSETLSLTCTVSGGSISYSNFYWGWIRQPPGKGLEWIGSVYYSGTTYYNPSLKSRVTISIDTSKNQISLKLNFVTAADTALYYCSRLQPYTNYGRSHYYFYALDVWGQGTTVTVSS chain 2: EIVLTQSPVTLSLSPGERATLSCRASQSIATSLAWYQHKPGQTPRLLIFDASERATGIPARFSGSGSGTDFTLTISSLEPEDFAVYYCQERSNWPRLTFGGGTKVEIK | inactive: -0.409 | inactive: -0.449 | inactive: -0.814 | inactive: -0.36 | inactive: -0.364 | inactive: -0.659 | inactive: -0.54 | inactive: -0.915 | inactive: -0.218 | inactive: -0.101 | inactive: -0.103 | inactive: 0.595 | inactive: 0.518
039-10-5B02 (protein) chain 1: QVQLQESGPGLVKPPQTLSLTCTVSGGSVSSGTYYWSWIRQPAGKGPEWIGRIYTTGSTDYNPSLKSRVTISIDTSNNRFSLRLNSVTAADTAVYYCARVGPHPTQGVSYFDHWGQGILVTVSS chain 2: EIVLTQSPVTLSLSPGERATLSCRASQSFSNYLAWYQQKPGQAPRLLIYDASTRATGVPARFSGSGSGTDFTLTISSLEPEDFAVYYCQLRSNWPLFFTFGPGTKVDIK | inactive: -0.484 | inactive: -0.799 | inactive: -0.86 | inactive: -0.591 | inactive: -0.00162 | inactive: -0.912 | inactive: -0.655 | inactive: -0.436 | inactive: -0.89 | inactive: 0.659 | inactive: -0.312 | inactive: -0.742 | inactive: -0.366
AG12-3A03 (protein) chain 1: VQLVESGGGLAQPGRSLRLSCRTSGFRFVDYGMSWFRQAPGKGLEWVSFIGSKSYGATKDYAASVRDRFIISRDDSKSIAYLEMNSLKTDDTAIYYCSRVPLLWRNGWDDDYWGQGTLVTVSS chain 2: DIQMTQSPSSLSASVGDRVTITCRASQDITNYLAWFQQRPGEAPKSLIYGASGLQTGVPSRFSGSGSGTDFTLTINSLQPEDFATYYCQQFYNYPITFGGGTKVEIK | inactive: 0.997 | inactive: -0.319 | inactive: -0.489 | inactive: 0.741 | inactive: 4.92 | inactive: 0.539 | inactive: -0.278 | inactive: 1.64 | inactive: -0.481 | inactive: 1.8 | inactive: -0.0666 | inactive: 1.49 | inactive: -0.155
K77-2H12 (protein) chain 1: EVQLVESGGGLVQPGGSLRLSCAASGFTFTNYWMTWVRQAPGKGLEWVANIKQDGSDKNYVDSLKGRFTISRDNAKKSLFLQMNSLGAEDTAVYYCARDFSDFGDLYFDYWGQGALVTVSS chain 2: QSALTQPRSVSGSPGQSVTVSCTGTRSDVGGYNYVSWYQQHPGKAPKLIIYDVSERPSGVPDRFSGSKSGNTASLTISGLQAEDEADYYCCSYAGSYTWVFGGGTKLT | inactive: 0.22 | inactive: -0.558 | inactive: 1.45 | inactive: 0.324 | inactive: -0.223 | inactive: 0.501 | inactive: -0.222 | inactive: 4.26 | inactive: -0.137 | inactive: 1.04 | inactive: 0.504 | inactive: 0.125 | inactive: 0.753
